Test systems include G361; IPC-298; IST-MEL1; LB2518-MEL; LOXIMVI; MEL-HO; MZ2-MEL; MeWo; RPMI7951; RVH-421.
Holding throughout (experiment): cell count relative to DMSO control; melanoma cells; higher = more viable cells
Common to all, as to conditions: library dose: standard library concentration; 72 h

The other results are listed elsewhere or left out. Single values are uncertain, as repeats are few or missing.
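Note: cells treated in 1,536-well plates, then fixed and DAPI-stained, with nuclei counted from automated high-throughput microscope images.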

Regarding `CS(=O)(=O)c1ccc(C(=O)Nc2ccc(Cl)c(-c3ccccn3)c2)c(Cl)c1` [vismodegib] + CC(C)CCN1c2nc(Nc3cc(F)c(O)c(F)c3)ncc2N(C)C(=O)C1C [BID1870] (first compound 5 µM, partner dose 1 µM), the cell count with G361 came out at 62.6%; with IPC-298 it was 79.3%; in the experiment with IST-MEL1, 86.3%; with LB2518-MEL, 90.5%; with LOXIMVI it was 89.7%; in the experiment with MEL-HO it was 72.3%. Besides, the cell count was 89.1% with MZ2-MEL, 76.4% in the experiment with MeWo, 90.9% with RPMI7951 and 77.7% in the experiment with RVH-421.

Regarding `CS(=O)(=O)c1ccc(C(=O)Nc2ccc(Cl)c(-c3ccccn3)c2)c(Cl)c1` [vismodegib] + Nc1ccn([C@@H]2O[C@H](CO)[C@@H](O)C2(F)F)c(=O)n1 [gemcitabine] (first compound 5 µM, partner dose 0.002 µM), the cell count with G361 came out at 55.6%; with IPC-298, 48.1%; in the experiment with IST-MEL1, 50%; in the experiment on LB2518-MEL, 79.6%; with LOXIMVI it was 87.7%; with MEL-HO, 69.4%. The cell count with MZ2-MEL was 95.7%; with MeWo, 61.2%; with RPMI7951 it was 94.2%; in the experiment with RVH-421, 71.9%.

For `CCCS(=O)(=O)Nc1ccc(F)c(C(=O)c2c[nH]c3ncc(Cl)cc23)c1F` + O=C(Nc1ccccc1)c1cc([N+](=O)[O-])ccc1Cl [GW9662] (first compound 0.4 µM, partner dose 10 µM), the cell count in the experiment on G361 was determined as 73.6%; in the experiment with IPC-298, 94.7%; in the experiment on IST-MEL1, 83.9%; in the experiment with LB2518-MEL, 81.7%; in the experiment with LOXIMVI it was 93.3%; in the experiment with MEL-HO it was 81.9%. Also, the cell count with MZ2-MEL was found to be 72.8%; in the experiment on MeWo it was 75.6%; with RPMI7951, 77.1%; in the experiment on RVH-421, 77.7%.

Take `NC1(c2ccc(-c3nc4ccn5c(=O)[nH]nc5c4cc3-c3ccccc3)cc2)CCC1` + COc1cc(N2CCC(N3CCN(C)CC3)CC2)ccc1Nc1ncc(Cl)c(Nc2ccccc2S(=O)(=O)C(C)C)n1 [NVP-TAE684] (first compound 2 µM, partner dose 0.4 µM): the cell count in the experiment with G361 stood at 66.9%; with IPC-298, 77.2%; with IST-MEL1 it was 70.5%; in the experiment with LB2518-MEL it was 73.5%; with LOXIMVI it was 72.3%; with MEL-HO it was 58.7%. The cell count in the experiment with MZ2-MEL was determined as 83.1%; in the experiment with MeWo, 65%; in the experiment with RPMI7951, 50.3%; with RVH-421, 81.4%.

`C=C(c1ccc(C(=O)O)cc1)c1cc2c(cc1C)C(C)(C)CCC2(C)C` [Bexarotene] + COc1ccc2c(c1)CCC1C2CCC2(C)C(NCCCCCCN3C(=O)C=CC3=O)CCC12 [U73122] (first compound 10 µM, partner dose 2 µM): the cell count in the experiment with G361 was 64.6%; in the experiment on IPC-298, 71.5%; in the experiment on IST-MEL1 it was 81.8%; in the experiment on LB2518-MEL it was 87.9%; in the experiment on LOXIMVI, 68.6%; with MEL-HO, 82.6%. Moreover, the cell count in the experiment on MZ2-MEL amounted to 69.5%; with MeWo, 59.3%; in the experiment on RPMI7951, 26.3%; in the experiment on RVH-421 it was 74.5%.

For the compound `CN(c1ncccc1CNc1nc(Nc2ccc3c(c2)CC(=O)N3)ncc1C(F)(F)F)S(C)(=O)=O` + COc1ccc(-c2ccc3c(N4CCOCC4)nc(N4C[C@@H](C)O[C@@H](C)C4)nc3n2)cc1CO [KU0063794] (first compound 0.4 µM, partner dose 0.1 µM), the cell count stood at 88.2% in the experiment with G361; 90.4% with IPC-298; 83.2% with IST-MEL1; 77% with LB2518-MEL; 90.4% in the experiment on LOXIMVI; 86% with MEL-HO. For the same compound, the cell count with MZ2-MEL worked out at 70.5%; in the experiment with MeWo it was 76.7%; in the experiment with RPMI7951, 55.7%; in the experiment with RVH-421, 64.5%.

For the compound `NC1(c2ccc(-c3nc4ccn5c(=O)[nH]nc5c4cc3-c3ccccc3)cc2)CCC1` + CC1(C)NC(=O)N(c2ccc([N+](=O)[O-])c(C(F)(F)F)c2)C1=O [nilutamide] (first compound 2 µM, partner dose 5 µM), the cell count with G361 was found to be 86.9%; in the experiment with IPC-298 it was 104%; in the experiment on IST-MEL1 it was 67.5%; with LB2518-MEL it was 72%; in the experiment on LOXIMVI, 80.1%; in the experiment with MEL-HO, 79.7%. Further, the cell count with MZ2-MEL worked out at 121%; in the experiment on MeWo it was 78.9%; with RPMI7951 it was 87.7%; with RVH-421 it was 67.5%.

Consider `CN(c1ncccc1CNc1nc(Nc2ccc3c(c2)CC(=O)N3)ncc1C(F)(F)F)S(C)(=O)=O` + C[C@]1(c2nc3c(C(N)=O)cccc3[nH]2)CCCN1 [Veliparib] (first compound 0.4 µM, partner dose 7 µM), for which the cell count in the experiment on G361 stood at 89.3%; in the experiment on IPC-298, 86.7%; in the experiment on IST-MEL1, 91.1%; in the experiment with LB2518-MEL it was 66.6%; in the experiment with LOXIMVI it was 68.1%; with MEL-HO it was 84.5%. Moreover, the cell count stood at 70.5% in the experiment with MZ2-MEL, 90.6% in the experiment on MeWo, 67.7% in the experiment with RPMI7951 and 81.4% in the experiment with RVH-421.

Consider `CN(c1ncccc1CNc1nc(Nc2ccc3c(c2)CC(=O)N3)ncc1C(F)(F)F)S(C)(=O)=O` + CNC(=O)c1cc(Oc2ccc(NC(=O)Nc3ccc(Cl)c(C(F)(F)F)c3)cc2)ccn1 [sorafenib] (first compound 0.4 µM, partner dose 2 µM), for which the cell count turned out to be 71.3% with G361; 92.1% in the experiment with IPC-298; 85.1% in the experiment on IST-MEL1; 95.1% in the experiment on LB2518-MEL; 118% in the experiment on LOXIMVI; 84.1% in the experiment with MEL-HO. In addition, the cell count with MZ2-MEL was determined as 107%; in the experiment on MeWo it was 85.2%; in the experiment on RPMI7951, 47.5%; in the experiment with RVH-421, 87.6%.

On to `NC1(c2ccc(-c3nc4ccn5c(=O)[nH]nc5c4cc3-c3ccccc3)cc2)CCC1` + C#Cc1cccc(Nc2ncnc3cc(OCCOC)c(OCCOC)cc23)c1 [erlotinib] (first compound 2 µM, partner dose 4 µM), for which the cell count with G361 came out at 71.1%; in the experiment with IPC-298, 57.8%; with IST-MEL1 it was 74.7%; in the experiment with LB2518-MEL, 60.4%; in the experiment on LOXIMVI it was 50.7%; in the experiment on MEL-HO, 50.3%. Also, the cell count in the experiment on MZ2-MEL was found to be 70.9%; in the experiment with MeWo, 61.9%; in the experiment with RPMI7951 it was 56.9%; in the experiment on RVH-421, 74.1%.

For the compound `C=C(c1ccc(C(=O)O)cc1)c1cc2c(cc1C)C(C)(C)CCC2(C)C` [Bexarotene] + CC(C)CCN1c2nc(Nc3cc(F)c(O)c(F)c3)ncc2N(C)C(=O)C1C [BID1870] (first compound 10 µM, partner dose 1 µM), the cell count in the experiment on G361 is 63.8%; with IPC-298, 68.5%; with IST-MEL1, 75.9%; in the experiment with LB2518-MEL, 89.9%; with LOXIMVI it was 78.5%; with MEL-HO, 64.1%. Also, the cell count with MZ2-MEL came to 87.4%; in the experiment with MeWo, 71.1%; with RPMI7951, 56.1%; with RVH-421, 72.1%.

Consider `CS(=O)(=O)c1ccc(C(=O)Nc2ccc(Cl)c(-c3ccccn3)c2)c(Cl)c1` [vismodegib] + O=C1NC(=O)/C(=C/c2ccc(-c3ccc(F)cc3O)o2)S1 [AS252424] (first compound 5 µM, partner dose 5 µM), for which the cell count stood at 93.2% in the experiment on G361; 93.9% with IPC-298; 101% with IST-MEL1; 113% in the experiment with LB2518-MEL; 88.2% in the experiment with LOXIMVI; 78.1% in the experiment with MEL-HO. For the same compound, the cell count with MZ2-MEL worked out at 94.2%; in the experiment on MeWo, 95.4%; in the experiment on RPMI7951, 80%; in the experiment with RVH-421 it was 120%.

For the compound `C=C(c1ccc(C(=O)O)cc1)c1cc2c(cc1C)C(C)(C)CCC2(C)C` [Bexarotene] + Cn1cc(/C=C2\C(=O)Nc3cccnc32)c2ccccc21 [GW441756] (first compound 10 µM, partner dose 2 µM), the cell count in the experiment on G361 came to 66.3%; in the experiment with IPC-298, 65.6%; in the experiment with IST-MEL1, 79.7%; in the experiment with LB2518-MEL, 114%; with LOXIMVI, 102%; with MEL-HO it was 84.2%. Also, the cell count came out at 61.4% in the experiment with MZ2-MEL, 81.5% in the experiment on MeWo, 66.7% with RPMI7951 and 83.6% with RVH-421.

For the compound `CN(c1ncccc1CNc1nc(Nc2ccc3c(c2)CC(=O)N3)ncc1C(F)(F)F)S(C)(=O)=O` + O=C(O)c1ccc(-c2c[nH]c3ncc(-c4ccccc4)cc23)cc1C1CCCC1 [GSK650394] (first compound 0.4 µM, partner dose 0.8 µM), the cell count with G361 worked out at 50.7%; with IPC-298 it was 92.2%; with IST-MEL1 it was 78%; in the experiment with LB2518-MEL, 91.5%; in the experiment with LOXIMVI it was 74.4%; in the experiment with MEL-HO, 79.9%. The cell count is 81.7% in the experiment with MZ2-MEL, 100% in the experiment on MeWo, 76.6% with RPMI7951 and 82.1% with RVH-421.

Take `CS(=O)(=O)c1ccc(C(=O)Nc2ccc(Cl)c(-c3ccccn3)c2)c(Cl)c1` [vismodegib] + COc1ccc(Cl)c(Nc2nc3ccccc3nc2NS(=O)(=O)c2cccc(NC(=O)C(C)(C)N)c2)c1 [XL147] (first compound 5 µM, partner dose 4 µM): the cell count in the experiment with G361 was found to be 69.1%; with IPC-298 it was 84.5%; in the experiment with IST-MEL1, 62.2%; in the experiment with LB2518-MEL, 81.4%; with LOXIMVI, 79.2%; with MEL-HO it was 74.5%. For the same compound, the cell count in the experiment with MZ2-MEL amounted to 82.8%; in the experiment on MeWo, 84.8%; in the experiment with RPMI7951, 124%; in the experiment on RVH-421, 16.3%.
